The text below walks through data of PubChem BioAssay AID1745853 (National Center for Advancing Translational Sciences (NCATS), 2022).

The structures appear in SMILES notation. Some of the results follow. These are further read-outs of the screen, such as a control signal, another cell line or another target. No call is given for them.

Test in all cases: Primary Screen for Target Class Profiling of Small Molecule Inhibitors of Methyltransferases
Assay [1] addresses Glycine N-methyltransferase (Homo sapiens) (UniProt Q14749). As to conditions: purified enzyme, MTase-Glo SAH luminescence; measured here: GNMT inhibition; at 40 µM; stronger effect = lower value. A digest of the protocol: (§1)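 Each enzyme was assayed with SAM and its substrate. SAH formation detected by MTase-Glo luminescence; single-point 40 uM screen[…].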
In assay [2] the target is Guanidinoacetate N-methyltransferase (Homo sapiens) (UniProt Q14353). As to conditions: purified enzyme, MTase-Glo SAH luminescence; measured here: GAMT inhibition; at 40 µM; stronger effect = lower value. In outline:
as §1

The target in assay [3] is Histamine N-methyltransferase (Homo sapiens) (UniProt P50135). As to conditions: purified enzyme, MTase-Glo SAH luminescence; measured here: HNMT inhibition; at 40 µM; stronger effect = lower value. In outline: as §1
In assay [4] the target is Nicotinamide N-methyltransferase (Homo sapiens) (UniProt P40261). To be noted: purified enzyme, MTase-Glo SAH luminescence; measured here: NNMT inhibition; at 40 µM; stronger effect = lower value. In outline:
as §1

For assay [5], the target named is Phenylethanolamine N-methyltransferase (Homo sapiens) (UniProt P11086). To be noted: purified enzyme, MTase-Glo SAH luminescence; measured here: PNMT inhibition; at 40 µM; stronger effect = lower value. In outline:
as §1
% is set by controls: 0 for no effect and ±100 for the full control effect.

As for `COc1cccc(NC(=O)Cn2c(=O)oc3cc(S(=O)(=O)N4CCCCC4C)ccc32)c1` (stereo not given), the activity change, negative = inhibition in assay [1] is -6.31%; in assay [2], -5%; in assay [3], -8.99%; in assay [4], -17.6%; in assay [5], -60.6%.
`CN(C(=O)Cc1ccsc1)C1CCc2nn(C)c(=O)n2CC1` (stereo not given): the activity change, negative = inhibition in assay [1] is -6.58%; in assay [2] it was -6.7%; in assay [3], -3.69%; in assay [4], -9.72%; in assay [5], 6.07%.
For `COc1cc(OC)c(/C=C/S(=O)(=O)Cc2ccc(OC)c(NCC(=O)O)c2)c(OC)c1`, in that order: 4.28%, 3.72%, 13.1%, -12.4% and 5.07%.
Take `Cc1cc(-c2cnc(Nc3ccc(F)cc3)c3c2CCO3)ccn1`: the activity change, negative = inhibition in assay [1] was -14.7%; in assay [2], 2.37%; in assay [3], -11.8%; in assay [4], -16.2%; in assay [5], -13.6%.
For `CS(=O)(=O)N1Cc2ccccc2CC2(CCCN2Cc2cccnc2)C1` (stereo not given), the activity change, negative = inhibition in assay [1] is -6.73%; in assay [2], -8.21%; in assay [3] it was -2.97%; in assay [4] it was -11.4%; in assay [5], -1.45%.
For `CC(C)c1cc2c(N3CCN(C4=NCC(C)(C)S4)CC3)ncnc2s1`, in that order: -5.32%, 2.49%, -35.4%, -69% and -4.61%.
Regarding `CCN1C(=O)c2c(C(=O)NCc3ccccc3Cl)ncn2CC1(C)C(=O)NC1CCCC1` (stereo not given), the activity change, negative = inhibition was -5.21% in assay [1]; -11.3% in assay [2]; 3.7% in assay [3]; -6.87% in assay [4]; -10.9% in assay [5].
The corresponding values for `CC(C)C(C(=O)N(C)C(C)C(N)=O)N(C)C(=O)C1CCCN1C(=O)/C=C/C=C/C(O)C(C)O` (stereo not given) are -0.645%, 2.15%, 3.41%, -11% and 2.24%.
For `CC1(C(=O)NC2CCCCC2)Cn2c(nc3ccccc32)C(=O)N1CCc1ccccc1` (stereo not given), in that order: 4.03%, 3.67%, 4.65%, -0.728% and -1.96%.
As to `Cc1ccc(NC(=O)CSc2nnc3n(CC(C)C)c(=O)c4ccc(C(=O)NC(C)C)cc4n23)c(C)c1`, the activity change, negative = inhibition in assay [1] was 0.423%; in assay [2] it was 2.33%; in assay [3] it was 4.77%; in assay [4] it was -0.947%; in assay [5], -0.478%.
For `C/C=C(/C)C(=O)O[C@@H]1C[C@@H](OC(=O)CC(C)C)C2(C)C3C(=O)C=C(C)C2C3C1(C)C` (stereo not given in full), in that order: 0%, 3.4%, 4.12%, -12.2% and 0.996%.
In the case of `O=C(NCCCc1ccccc1)c1ccc2c(=O)nc3c(-c4ccccc4)n[nH]n3c2c1`, the activity change, negative = inhibition was -10.4% in assay [1]; 0% in assay [2]; 3.92% in assay [3]; 1.01% in assay [4]; -1.69% in assay [5].
The corresponding values for `O=C(Cn1c(=O)oc2cc(S(=O)(=O)NC3CCCC3)ccc21)NCc1cccs1` are 2.37%, 3.9%, 4.61%, 5.82% and 1.11%.
As for `Cc1ccc(CN2C(=O)c3cc4ccccc4n3CC2(C)C(=O)NCc2ccccc2)o1` (stereo not given), the activity change, negative = inhibition in assay [1] turned out to be 4.39%; in assay [2] it was 1.67%; in assay [3] it was 5.92%; in assay [4], 6.44%; in assay [5], 3.23%.
For `OC(CN1CCN(c2cccc(Cl)c2)CC1)C(c1ccccc1)c1ccccc1` (stereo not given), in that order: -0.059%, 0.109%, 5.77%, -18.8% and -1.35%.
As for `C=C1OC2CC(C(=O)O)C=CC2NC1=O` (stereo not given), the activity change, negative = inhibition is 0.18% in assay [1]; -6.94% in assay [2]; 3.91% in assay [3]; -17.9% in assay [4]; -4.76% in assay [5].
The corresponding values for `Cc1cc(C)cc(OCC(=O)Nc2ccc3c(c2)C(=O)c2ccccc2C3=O)c1` are 0.838%, 0.108%, -3.26%, -2.69% and -5.73%.
Turning to `COc1ccccc1OCCNC(=O)[C@]12CCCC[C@@H]1N(C)C(=O)CC2`, the activity change, negative = inhibition amounted to 0.037% in assay [1]; 2.22% in assay [2]; 3.02% in assay [3]; 0.861% in assay [4]; 16.4% in assay [5].
For `Nc1ccc(CCNc2ncnc3c2ncn3C2OC(CO)C(O)C2O)cc1` (stereo not given), the activity change, negative = inhibition in assay [1] came to 14.7%; in assay [2] it was 71.4%; in assay [3] it was 0.5%; in assay [4] it was 26.2%; in assay [5], 0.738%.
Regarding `COc1ccc(C2(C(=O)N3C[C@@H](CO)[C@H](c4ccccn4)C3)CC2)cc1`, the activity change, negative = inhibition in assay [1] is -3.19%; in assay [2] it was -6.1%; in assay [3], -1.1%; in assay [4], -12.1%; in assay [5], -7.39%.
